Reference: the supplement of paper PMC4967469
IC50 is the fitted dose that halves viability relative to control wells, and lower means more sensitive; a limit (>, <) means that the fit lies beyond the doses tested. For AUC the same curve is integrated over the 256-fold range of doses and scaled to a fraction; the more sensitive the line, the further below 1. Any top dose called inferred is not printed in the source and was worked back from the curve model.

Experiments:
Test in all cases: Viability of human cancer cell lines after 72 h of drug (GDSC screen)
XMD14-99 = compound: COc1cc(N2CCN(C)CC2)ccc1Nc1nc(N)c(C(=O)c2c(Cl)cccc2Cl)s1 [XMD14-99]; conditions: top dose 10.24 µM; top dose inferred
Protocol: (§1)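 Human cancer cell lines in 384-well plates, medium with 10% serum, drug for 72 h over a 256-fold dose range (nine 2-fold or five 4-fold steps up to the top dose). Adherent lines were fixed and stained with the nucleic acid dye Syto60, suspension lines read with resazurin; signal relative to control wells, capped at 0 and 100%. One two-parameter sigmoid per drug and line, fitted in a mixed model over all curves with the slope shared within a line.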

FH535 = compound: Cc1cc([N+](=O)[O-])ccc1NS(=O)(=O)c1cc(Cl)ccc1Cl [FH535]; conditions: top dose 32 µM; top dose inferred
Protocol: as §1

AT-7519 = compound: O=C(NC1CCNCC1)c1n[nH]cc1NC(=O)c1c(Cl)cccc1Cl [AT-7519]; conditions: top dose 10.24 µM; top dose inferred
Protocol: as §1

| Cell Line | AUC (XMD14-99) | IC50 (XMD14-99) | AUC (FH535) | IC50 (FH535) | AUC (AT-7519) | IC50 (AT-7519) |
| --- | --- | --- | --- | --- | --- | --- |
| SK-MEL-30 (melanoma, adherent) | 0.935 | > 10.2 µM | 0.652 | 5.4 µM | 0.645 | 1.65 µM |
| HOS (osteosarcoma, adherent) | 0.992 | > 10.2 µM | 0.599 | 3.55 µM | 0.992 | > 10.2 µM |
| NCI-H2452 (mesothelioma, adherent) | 0.981 | > 10.2 µM | 0.967 | > 32 µM | 0.984 | > 10.2 µM |
| SW900 (lung squamous cell carcinoma, adherent) | 0.985 | > 10.2 µM | 0.807 | 19.6 µM | 0.829 | 7.84 µM |
| LNZTA3WT4 (glioma, adherent) | 0.987 | > 10.2 µM | 0.446 | 1.43 µM | 0.962 | > 10.2 µM |
| COLO-678 (large intestine, semi-adherent) | 0.982 | > 10.2 µM | 0.73 | 11.1 µM | 0.911 | > 10.2 µM |
| SNU-475 (liver, adherent) | 0.983 | > 10.2 µM | 0.96 | > 32 µM | 0.725 | 2.55 µM |
| 451Lu (melanoma, adherent) | 0.989 | > 10.2 µM | 0.567 | 3.02 µM | 0.879 | 9.72 µM |
| MDA-MB-415 (breast, adherent) | 0.982 | > 10.2 µM | 0.626 | 5.01 µM | 0.927 | > 10.2 µM |
| JEG-3 (urogenital system, adherent) | 0.978 | > 10.2 µM | 0.492 | 1.91 µM | 0.604 | 1.2 µM |
| HEC-1 (endometrium, adherent) | 0.988 | > 10.2 µM | 0.715 | 7.9 µM | 0.954 | > 10.2 µM |
| ACHN (kidney, adherent) | 0.976 | > 10.2 µM | 0.647 | 5.42 µM | 0.86 | > 10.2 µM |
| HCC-44 (lung adenocarcinoma, adherent) | 0.98 | > 10.2 µM | 0.594 | 3.6 µM | 0.387 | 0.316 µM |
| DMS-273 (small cell lung carcinoma, adherent) | 0.978 | > 10.2 µM | 0.341 | 0.701 µM | 0.978 | > 10.2 µM |
| MKN45 (stomach, adherent) | 0.965 | > 10.2 µM | 0.519 | 2.29 µM | 0.678 | 2.31 µM |
| NCI-H1435 (lung adenocarcinoma, semi-adherent) | 0.987 | > 10.2 µM | 0.387 | 1.02 µM | 0.929 | > 10.2 µM |
| MFE-319 (endometrium, adherent) | 0.989 | > 10.2 µM | 0.597 | 3.66 µM | 0.842 | 6.85 µM |
| Mewo (melanoma, adherent) | 0.979 | > 10.2 µM | 0.703 | 8.46 µM | 0.92 | > 10.2 µM |
| PANC-04-03 (pancreas, adherent) | 0.977 | > 10.2 µM | 0.826 | > 32 µM | 0.907 | > 10.2 µM |

| Cell Line | AUC (XMD14-99) | IC50 (XMD14-99) | AUC (FH535) | IC50 (FH535) | AUC (AT-7519) | IC50 (AT-7519) |
| --- | --- | --- | --- | --- | --- | --- |
| LCLC-103H (large cell lung carcinoma, adherent) | 0.986 | > 10.2 µM | 0.655 | 5.13 µM | 0.431 | 0.423 µM |
| HuP-T4 (pancreas, adherent) | 0.931 | > 10.2 µM | 0.421 | 1.2 µM | 0.354 | 0.246 µM |
| PA-TU-8988T (pancreas, adherent) | 0.987 | > 10.2 µM | 0.459 | 1.55 µM | 0.634 | 1.5 µM |
| OVCAR-5 (ovary, adherent) | 0.977 | > 10.2 µM | 0.817 | 22.7 µM | 0.497 | 0.627 µM |
| SU-DHL-5 (B-cell lymphoma, suspension) | 0.914 | 8.24 µM | 0.63 | 4.15 µM | 0.226 | 0.133 µM |
| TOV-112D (ovary, adherent) | 0.959 | > 10.2 µM | 0.507 | 2.09 µM | 0.443 | 0.446 µM |
| BICR78 (head and neck, adherent) | 0.983 | > 10.2 µM | 0.853 | 31.5 µM | 0.865 | > 10.2 µM |
| G-292 Clone A141B1 (osteosarcoma, adherent) | 0.948 | > 10.2 µM | 0.798 | 27.6 µM | 0.924 | > 10.2 µM |
| 8505C (thyroid, adherent) | 0.983 | > 10.2 µM | 0.57 | 3.15 µM | 0.578 | 1.06 µM |
| NCI-H1568 (lung adenocarcinoma, adherent) | 0.976 | > 10.2 µM | 0.664 | 6.46 µM | 0.438 | 0.416 µM |
| CCF-STTG1 (glioma, adherent) | 0.987 | > 10.2 µM | 0.739 | 9.68 µM | 0.988 | > 10.2 µM |
| RERF-LC-MS (lung adenocarcinoma, adherent) | 0.984 | > 10.2 µM | 0.415 | 1.16 µM | 0.839 | 7.3 µM |
| HCC1428 (breast, adherent) | 0.988 | > 10.2 µM | 0.647 | 5.33 µM | 0.956 | > 10.2 µM |
| SW156 (kidney, adherent) | 0.97 | > 10.2 µM | 0.533 | 2.49 µM | 0.958 | > 10.2 µM |
| UACC-62 (melanoma, adherent) | 0.984 | > 10.2 µM | 0.225 | 0.321 µM | 0.949 | > 10.2 µM |
| DAN-G (pancreas, adherent) | 0.987 | > 10.2 µM | 0.415 | 1.21 µM | 0.655 | 1.62 µM |
| CP50-MEL-B (melanoma, adherent) | 0.988 | > 10.2 µM | 0.378 | 0.926 µM | 0.87 | 9.35 µM |
| CHSA8926 (chondrosarcoma, adherent) | 0.97 | > 10.2 µM | 0.836 | > 32 µM | 0.689 | 2.73 µM |
| H513 (mesothelioma, semi-adherent) | 0.979 | > 10.2 µM | 0.433 | 1.26 µM | 0.938 | > 10.2 µM |

| Cell Line | AUC (XMD14-99) | IC50 (XMD14-99) | AUC (FH535) | IC50 (FH535) | AUC (AT-7519) | IC50 (AT-7519) |
| --- | --- | --- | --- | --- | --- | --- |
| PL18 (pancreas, adherent) | 0.986 | > 10.2 µM | 0.802 | 15.6 µM | 0.825 | 6.11 µM |
| HT-1080 (fibrosarcoma, adherent) | 0.989 | > 10.2 µM | 0.436 | 1.37 µM | 0.983 | > 10.2 µM |
| Hs633T (fibrosarcoma, adherent) | 0.992 | > 10.2 µM | 0.651 | 4.82 µM | 0.713 | 2.24 µM |
| LN-405 (glioma, adherent) | 0.984 | > 10.2 µM | 0.706 | 8.95 µM | 0.717 | 3.13 µM |
| Hs766T (pancreas, adherent) | 0.984 | > 10.2 µM | 0.48 | 1.73 µM | 0.972 | > 10.2 µM |
| RVH-421 (melanoma, adherent) | 0.945 | > 10.2 µM | 0.391 | 0.897 µM | 0.83 | 9.95 µM |
| SW48 (large intestine, adherent) | 0.979 | > 10.2 µM | 0.498 | 1.98 µM | 0.882 | > 10.2 µM |
| NCI-H661 (large cell lung carcinoma, adherent) | 0.972 | > 10.2 µM | 0.59 | 3.72 µM | 0.675 | 2.2 µM |
| SW13 (adrenal gland, adherent) | 0.988 | > 10.2 µM | 0.5 | 2 µM | 0.973 | > 10.2 µM |
| NCI-H2228 (lung adenocarcinoma, adherent) | 0.863 | > 10.2 µM | 0.783 | 21.7 µM | 0.861 | > 10.2 µM |
| COR-L23 (large cell lung carcinoma, adherent) | 0.963 | > 10.2 µM | 0.55 | 2.73 µM | 0.458 | 0.495 µM |
| G-402 (soft tissue, adherent) | 0.972 | > 10.2 µM | 0.625 | 4.98 µM | 0.454 | 0.459 µM |
| HOP-92 (large cell lung carcinoma, adherent) | 0.983 | > 10.2 µM | 0.51 | 2.13 µM | 0.931 | > 10.2 µM |
| C-4-I (cervix, adherent) | 0.98 | > 10.2 µM | 0.6 | 3.85 µM | 0.912 | > 10.2 µM |
| ABC-1 (lung adenocarcinoma, adherent) | 0.983 | > 10.2 µM | 0.584 | 3.56 µM | 0.586 | 1.16 µM |
| HPAC (pancreas, adherent) | 0.954 | > 10.2 µM | 0.657 | 6.54 µM | 0.575 | 1.12 µM |
| HO-1-u-1 (head and neck, adherent) | 0.984 | > 10.2 µM | 0.596 | 3.62 µM | 0.819 | 5.52 µM |
| Detroit562 (head and neck, adherent) | 0.988 | > 10.2 µM | 0.658 | 5.37 µM | 0.921 | > 10.2 µM |
| FADU (head and neck, adherent) | 0.988 | > 10.2 µM | 0.541 | 2.58 µM | 0.818 | 5.51 µM |
